The record followed here is PubChem BioAssay AID1508642 (National Center for Advancing Translational Sciences (NCATS), 2021).

The campaign covered roughly 43,000 compounds. About 200 (0.47%) were called active. Another 12% or so got no clear call; they are omitted. Calls come from the whole dose curve; as a rule, active = well fitted cell-killing curve with a large enough effect; inconclusive = small, poorly fitted or top-dose-only effect, or effect the other way; inactive = flat fitted curve, though single readings scatter. The list shows a part of the results.
% is set by controls: 0 for no effect and ±100 for the full control effect.

The experiment in a line: Cell viability qHTS assay in S16 Pmp22-F2sN cells. Note: nearly all actives have a fitted effect of over 65% in size. The conditions noted are these: S16 Pmp22-F2sN Schwann cells viability, CellTiter-Glo, 24 h; series mostly up to 57.5 µM; activity change, negative = cytotoxicity: at the top concentration. The gist of the method:
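S16 Pmp22-F2sN Schwann cells (500-1,000/well) in phenol-red-free DMEM with 10% FBS received 23 nL compound by pin tool for 24 h at 37 °C. Viability was then read as CellTiter-Glo luminescence after 15 min at room temperature.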
Regarding `COc1ccc(C(=O)O)cc1Nc1nc2ccc(C)cc2n2cnnc12`, the “activity change, negative = cytotoxicity” value was inactive: 14.1%. Under `Cc1cccc(NC(=O)c2sc3nc4n(c(=O)c3c2C)N=C(c2ccc(F)cc2)CS4)c1C` stands inactive: 0.665%; under `Cc1ccc(C)c(N2CCN(c3nc4ccccc4c4nc(CCn5nc(C)cc5C)nn34)CC2)c1`, inactive: 0.856%; under `O=C(CSc1nc(-c2ccc(Cl)cc2)nc2c1Cc1ccccc1O2)N1CCCCC1`, inactive: 14.3%. For `Cc1cccc(C)c1-n1ncc(C(=O)Nc2ccc3c(c2)OCCO3)c1C1CCN(C(=O)OC(C)(C)C)CC1` the value was inactive: -20.4%; for `CCOCCOC(=O)c1ccc(NC(=O)/C=C/c2ccc(OC)c(OC)c2)cc1`, inactive: 0.471%; for `O=C(CSc1ncc2c(n1)-c1ccccc1N(Cc1ccc(F)cc1)S2(=O)=O)c1ccc(Cl)cc1`, inactive: -1.36%. Under `CCc1cc2c(cc3c(=O)n(CC(=O)N4CCN(c5cc(Cl)ccc5C)CC4)ncn32)s1` stands inactive: 13.5%; under `Cc1ccc(S(=O)(=O)c2cn(C)c3cc(N4CCN(C)CC4)c(F)cc3c2=O)cc1`, inactive: 1.37%. As for `COc1ccccc1N1CCN(S(=O)(=O)c2c(C)sc3ncn(CC(=O)N(C)c4ccc(C(C)C)cc4)c(=O)c23)CC1`, the “activity change, negative = cytotoxicity” value was inactive: -8.72%. Under `CNS(=O)(=O)c1ccc(OC)c(-c2nnc3c4ccccc4c(C)nn23)c1` stands inactive: -3.87%; under `Cc1ccc(NCc2cccn2-c2nnc(N3CCC(C(=O)NCc4ccc(OC(C)C)cc4)CC3)s2)cc1`, inactive: -18.3%. For `CC(C)OCCCN(Cc1ccco1)C(=O)c1cc2c(s1)-c1ccccc1OC2` the value was inactive: 11.1%; for `CCN(CC)C(=O)Cn1cc(SCC(=O)Nc2cccc(C)c2)c2ccccc21`, inactive: 8.05%; for `COCc1cc(C)n(CC(=O)Nc2ccc(NC(C)=O)cc2)c(=O)c1C#N`, inactive: -6.81%.

With `CC(C)Oc1ccc(CNC(=O)C2CCN(C(=O)c3sccc3-n3cccc3)CC2)cc1`, the “activity change, negative = cytotoxicity” value was inactive: -2.02%.

`COc1ccccc1CNC(=O)CN1C(=O)CSc2ccc(S(=O)(=O)N3CCCC3)cc21`: the “activity change, negative = cytotoxicity” value is inactive: 5.03%. For `Cc1ccc(Cl)cc1NC(=O)N1CCN(C)c2ncccc21` the value was inactive: 14.5%. Under `Cc1cccc(C(=O)N2CCc3cc(CNC(=O)CCc4ccccc4)ccc32)c1` stands inactive: -18.7%; under `COc1ccccc1-c1noc(-c2ccc(N3CCN(c4ccccc4)CC3)c([N+](=O)[O-])c2)n1`, inactive: -10.4%; under `CC1=C(C#N)C(NC(=O)c2cccc(Cl)c2)(C(F)(F)F)C(=O)N1` (stereo not given), inactive: 0.962%. For `Cc1cn2c(=O)cc(COc3ccc(NC(=O)c4cccc(F)c4)cc3)nc2s1`, the “activity change, negative = cytotoxicity” value is inactive: 11.5%. Under `Cc1nn(CCCC(=O)Nc2ccccc2C(F)(F)F)c(=O)c2c1sc1ccccc12` stands inactive: 5.09%; under `CN(C)CCN(Cc1ccco1)S(=O)(=O)c1cc2c(cc1Cl)NC(=O)CO2`, inactive: 25.2%; under `COc1ccccc1CCNC(=O)CCc1c(C)c2cc3c(C)coc3c(C)c2oc1=O`, inactive: 0.754%.
